Measured values from patent US11135177B2, “Methods of making and using compositions comprising flavonoids” (VIZURI HEALTH SCIENCES CONSUMER HEALTHCARE, INC., priority 2009, dated 2021).

Experiments:
skin cancer [1] = settings: anti skin cancer activities; cited from earlier work
skin cancer [2] = settings: topical application prior to UVB-irradiation, mouse; cited from earlier work
[3] = cited from earlier work
[4] = Apigenin solubility testing in solvents (Examples 2, 4); format: physicochemical; settings: for solubility in alcohol solvents: isopropyl alcohol, butylene glycol, glycerin
[5] = Solubility in molten vitamins B5 / B3; settings: molten D,L Panthenol, approximately 65° C.
[6] = ethoxydiglycol, propylene glycol

| solubility in acetone ([4]; acetone) | solubility in ethanol ([4]; ethanol) | solubility in ethoxydiglycol ([4]; ethoxydiglycol) | solubility in alcohol solvents [4, 6] | solubility ([4]; propylene glycol, organic solvent or mixture) [µg/mL] | solubility in water ([4]; water) | solubility in molten D,L Panthenol [5] | Compound | concentration at which it acts effectively (skin cancer [1]) [µM] | reduction of the incidence of skin cancer (skin cancer [2]) | dimethylsulfoxide (DMSO) solubility ([3]; DMSO, reported in the literature) [mg/mL] | solubility in water ([3]; water, Li et al. 1997) [µg/mL] |
| --- | --- | --- | --- | --- | --- | --- | --- | --- | --- | --- | --- |
| less than 2 mg/ml | less than 2 mg/ml | greater than 10 mg/ml | essentially insoluble | < 1000 | negligible solubility | – | O=c1cc(-c2ccc(O)cc2)oc2cc(O)cc(O)c12 [apigenin, 4′,5,7,-trihydroxyflavone] | < 50 | up to 90% | > 100 | < 5 |
| – | – | – | limited solubility | – | – | readily dissolved | O=c1cc(-c2ccc(O)cc2)oc2cc(O)cc(O)c12 [hydrated apigenin] | – | – | – | – |
| – | – | – | essentially insoluble | – | – | – | O=c1cc(-c2ccc(O)c(O)c2)oc2cc(O)cc(O)c12 [luteolin, 3′,4′,5,7-tetrahydroxyflavone] | – | – | – | – |

Where two headings read alike, the source gives them in different places.
